{"source": "the supplement of paper PMC11876631", "proteins": {"B1": {"name": "argC V99A (protein)", "chain": "MLNTLIVGASGYAGAELVTYVNRHPHMNITALTVSAQSNDAGKLISDLHPQLKGIVDLPLQPMSDISEFSPGVDVVFLATAHEVSHDLAPQFLEAGCVAFDLSGAFRVNDATFYEKYYGFTHQYPELLEQAAYGLAEWCGNKLKEANLIAVPGCYPTAAQLALKPLIDADLLDLNQWPVINATSGVSGAGRKAAISNSFCEVSLQPYGVFTHRHQPEIATHLGADVIFTPHLGNFPRGILETITCRLKSGVTQAQVAQVLQQAYAHKPLVRLYDKGVPALKNVVGLPFCDIGFAVQGEHLIIVATEDNLLKGAAAQAVQCANIRFGYAETQSLI"}, "B2": {"name": "argC V99Q (protein)", "chain": "B1 chain with A99Q"}, "B3": {"name": "argC V99D (protein)", "chain": "B1 chain with A99D"}, "B4": {"name": "argC V99P (protein)", "chain": "B1 chain with A99P"}, "B5": {"name": "glnS F52A (protein)", "chain": "MSEAEARPTNFIRQIIDEDLASGKHTTVHTRFPPEPNGYLHIGHAKSICLNAGIAQDYKGQCNLRFDDTNPVKEDIEYVESIKNDVEWLGFHWSGNVRYSSDYFDQLHAYAIELINKGLAYVDELTPEQIREYRGTLTQPGKNSPYRDRSVEENLALFEKMRAGGFEEGKACLRAKIDMASPFIVMRDPVLYRIKFAEHHQTGNKWCIYPMYDFTHCISDALEGITHSLCTLEFQDNRRLYDWVLDNITIPVHPRQYEFSRLNLEYTVMSKRKLNLLVTDKHVEGWDDPRMPTISGLRRRGYTAASIREFCKRIGVTKQDNTIEMASLESCIREDLNENAPRAMAVIDPVKLVIENYQGEGEMVTMPNHPNKPEMGSRQVPFSGEIWIDRADFREEANKQYKRLVLGKEVRLRNAYVIKAERVEKDAEGNITTIFCTYDADTLSKDPADGRKVKGVIHWVSAAHALPVEIRLYDRLFSVPNPGAADDFLSVINPESLVIKQGFAEPSLKDAVAGKAFQFEREGYFCLDSRHSTAEKPVFNRTVGLRDTWAKVGE"}, "B6": {"name": "glnS F52W (protein)", "chain": "B5 chain with A52W"}, "B7": {"name": "glnS F158W (protein)", "chain": "B5 chain with A52F, F158W"}, "B8": {"name": "glnS L277A (protein)", "chain": "B5 chain with A52F, L277A"}, "B9": {"name": "glnS L277Q (protein)", "chain": "B5 chain with A52F, L277Q"}, "B10": {"name": "glnS L277P (protein)", "chain": "B5 chain with A52F, L277P"}, "B11": {"name": "glnS I434A (protein)", "chain": "B5 chain with A52F, I434A"}}, "note": "Numbering of substitutions follows the chain as printed. Names and notes keep the numbering of the source. ± gives the standard deviation of the averaged measurements. Laboratory Escherichia coli strains with one amino-acid change in an essential protein, pooled on minimal glucose agar with carbenicillin or gentamicin at twice the control MIC (plus kanamycin and chloramphenicol for the plasmids), 48 h. Fold change of barcode share against drug-free plates; higher = less susceptible. Active = above 20 in both replicates (the paper's putatively resistant). '<' = one read or none on drug, '>' = one read or none on a drug-free plate. Shares are relative, so most strains fall below 1 when a few take over. Listed are strains with at least 15 reads on both drug-free plates, and hits; most hits rest on fewer reference reads. Replicate rank correlation about 0.5. Edits are read from barcodes."}
{"molecular_target": "Escherichia coli (laboratory strain)", "test": "barcode share on antibiotic plates over drug-free plates; higher = less susceptible", "settings": "antibiotic: carbenicillin; 2× MIC (3.1 µg/mL)", "method": "(§1)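 A pool of E. coli strains, each edited to carry one amino-acid change in an essential protein, was grown for 48 h on minimal glucose agar with or without antibiotic; strain barcodes were sequenced; mean of two replicates.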"}
{"protein": "B1", "fold change of barcode share": "0.478 ± 0.04"}
{"protein": "B2", "fold change of barcode share": "0.48 ± 0.06"}
{"protein": "B3", "fold change of barcode share": "0.629 ± 0.025"}
{"protein": "B4", "fold change of barcode share": "0.45 ± 0.1"}
{"protein": "B5", "fold change of barcode share": "0.595 ± 0.35"}
{"protein": "B6", "fold change of barcode share": "0.306 ± 0.052"}
{"protein": "B7", "fold change of barcode share": "0.184 ± 0.023"}
{"protein": "B8", "fold change of barcode share": "0.216 ± 0.018"}
{"protein": "B9", "fold change of barcode share": "0.29 ± 0.056"}
{"protein": "B10", "fold change of barcode share": "0.582 ± 0.1"}
{"protein": "B11", "fold change of barcode share": "0.344 ± 0.12"}
{"molecular_target": "Escherichia coli (laboratory strain)", "test": "barcode share on antibiotic plates over drug-free plates; higher = less susceptible", "settings": "antibiotic: gentamicin; 2× MIC (MIC 0.45 µg/mL)", "method": "as §1"}
{"protein": "B1", "fold change of barcode share": "0.00894 ± 0.0037"}
{"protein": "B2", "fold change of barcode share": "0.0191 ± 0.02"}
{"protein": "B3", "fold change of barcode share": "0.0473 ± 0.04"}
{"protein": "B4", "fold change of barcode share": "0.0179 ± 0.01"}
{"protein": "B5", "fold change of barcode share": "< 0.0168"}
{"protein": "B6", "fold change of barcode share": "0.0233 ± 0.013"}
{"protein": "B7", "fold change of barcode share": "< 0.0126"}
{"protein": "B8", "fold change of barcode share": "0.00571 ± 0.0028"}
{"protein": "B9", "fold change of barcode share": "< 0.0093"}
{"protein": "B10", "fold change of barcode share": "< 0.00772"}
{"protein": "B11", "fold change of barcode share": "< 0.00556"}
